Data taken from the supplement of paper PMC10369915.
The list shows a part of the results. No stated cut-off is given here; in the data, active = 3.2 or more and inactive = the rest. The signal is at background level for most entries.
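Further: displayed peptides selected on beads carrying the immobilized SH2 domain, with library peptides lacking any tyrosine serving as negative controls.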

What follows are binders tested against SHP2 C-SH2 domain E139D (assay: enrichment score (SH2-bound / input frequency) (ratio); bacterial display of known human phosphotyrosine sites (pTyr-Var adds point mutants) read by sequencing; higher = stronger binding; tyrosines were phosphorylated by kinases first). Details: peptide library: pTyr-Var.
For VTSLKYSTPPY [BRIP1_Y916_S919P], the enrichment score was inactive: 0.881.
With VTSLKYSTPPF [BRIP1_Y916_S919P_YF] the enrichment score was inactive: 0.956.
For QLFGPYLRIHA [BSCL2_Y213_A212P_YF], the enrichment score was inactive: 1.91.
In the case of MASTSYDYCRV [BST2_Y6], the enrichment score is reported as inactive: 0.598.
For MASISYDYCRV [BST2_Y6_T4I], the enrichment score was inactive: 0.872.
In the case of MASTSYDFCRV [BST2_Y6_YF], the enrichment score is reported as inactive: 0.957.
SISYDYCRVPM [BST2_Y8_T4I] was tested, and the enrichment score was inactive: 0.771.
In the case of VTAALYGCLYE [BTD_Y536_R538C], the enrichment score is reported as inactive: 1.33.
For VMAALYGRLYE [BTD_Y536_T532M], the enrichment score was active: 3.59.
For VTAALYGRLFE [BTD_Y536_YF], the enrichment score was inactive: 1.46.
For PELINYHQHYS [BTK_Y361_N365Y], the enrichment score was inactive: 1.53.
PELINYHQHFS [BTK_Y361_N365Y_YF] was tested, and the enrichment score was inactive: 1.16.
ISRLKYPVSQQ [BTK_Y375] was tested, and the enrichment score was inactive: 1.3.
For MSRLKYPVSQQ [BTK_Y375_I370M], the enrichment score was inactive: 1.01.
In the case of ISGLKYPVSQQ [BTK_Y375_R372G], the enrichment score is reported as inactive: 0.9.
With HKLSYCEYDFE [BTK_Y40_Y40C] the enrichment score was inactive: 1.18.
In the case of HKLSFYEFDFE [BTK_Y40_YF], the enrichment score is reported as inactive: 1.36.
For KWRGQYDVAIK [BTK_Y425], the enrichment score was inactive: 1.47.

What follows are binders tested against SHP2 C-SH2 domain wild-type in the same assay as above. Details: peptide library: pTyr-Var.
With VTSLKYSTPPY [BRIP1_Y916_S919P] the enrichment score was inactive: 0.742.
VTSLKYSTPPF [BRIP1_Y916_S919P_YF] was tested, and the enrichment score was inactive: 0.76.
For QLFGPYLRIHA [BSCL2_Y213_A212P_YF], the enrichment score was inactive: 2.79.
MASTSYDYCRV [BST2_Y6] was tested, and the enrichment score was inactive: 0.677.
MASISYDYCRV [BST2_Y6_T4I] was tested, and the enrichment score was inactive: 0.979.
In the case of MASTSYDFCRV [BST2_Y6_YF], the enrichment score is reported as inactive: 0.989.
With SISYDYCRVPM [BST2_Y8_T4I] the enrichment score was inactive: 0.827.
For VTAALYGCLYE [BTD_Y536_R538C], the enrichment score was inactive: 1.88.
With VMAALYGRLYE [BTD_Y536_T532M] the enrichment score was active: 3.22.
For VTAALYGRLFE [BTD_Y536_YF], the enrichment score was inactive: 1.41.
PELINYHQHYS [BTK_Y361_N365Y] was tested, and the enrichment score was inactive: 1.6.
In the case of PELINYHQHFS [BTK_Y361_N365Y_YF], the enrichment score is reported as inactive: 0.984.
In the case of ISRLKYPVSQQ [BTK_Y375], the enrichment score is reported as inactive: 1.3.
In the case of MSRLKYPVSQQ [BTK_Y375_I370M], the enrichment score is reported as inactive: 0.819.
For ISGLKYPVSQQ [BTK_Y375_R372G], the enrichment score was inactive: 0.772.
With HKLSYCEYDFE [BTK_Y40_Y40C] the enrichment score was inactive: 1.04.
For HKLSFYEFDFE [BTK_Y40_YF], the enrichment score was inactive: 1.38.
KWRGQYDVAIK [BTK_Y425] was tested, and the enrichment score was inactive: 1.28.

What follows are binders tested against SHP2 N-SH2 domain L43F in the same assay as above. Details: peptide library: pTyr-Var.
For VTSLKYSTPPY [BRIP1_Y916_S919P], the enrichment score was inactive: 0.859.
In the case of VTSLKYSTPPF [BRIP1_Y916_S919P_YF], the enrichment score is reported as inactive: 0.99.
With QLFGPYLRIHA [BSCL2_Y213_A212P_YF] the enrichment score was active: 3.47.
For MASTSYDYCRV [BST2_Y6], the enrichment score was inactive: 0.481.
MASISYDYCRV [BST2_Y6_T4I] was tested, and the enrichment score was inactive: 0.925.
In the case of MASTSYDFCRV [BST2_Y6_YF], the enrichment score is reported as inactive: 0.703.
With SISYDYCRVPM [BST2_Y8_T4I] the enrichment score was inactive: 0.616.
For VTAALYGCLYE [BTD_Y536_R538C], the enrichment score was inactive: 1.48.
For VMAALYGRLYE [BTD_Y536_T532M], the enrichment score was inactive: 3.14.
For VTAALYGRLFE [BTD_Y536_YF], the enrichment score was inactive: 1.58.
PELINYHQHYS [BTK_Y361_N365Y] was tested, and the enrichment score was inactive: 1.12.
PELINYHQHFS [BTK_Y361_N365Y_YF] was tested, and the enrichment score was inactive: 1.25.
For ISRLKYPVSQQ [BTK_Y375], the enrichment score was inactive: 1.34.
In the case of MSRLKYPVSQQ [BTK_Y375_I370M], the enrichment score is reported as inactive: 0.909.
ISGLKYPVSQQ [BTK_Y375_R372G] was tested, and the enrichment score was inactive: 0.91.
For HKLSYCEYDFE [BTK_Y40_Y40C], the enrichment score was inactive: 0.908.
For HKLSFYEFDFE [BTK_Y40_YF], the enrichment score was inactive: 1.51.
For KWRGQYDVAIK [BTK_Y425], the enrichment score was inactive: 1.29.

The binders below were run against SHP2 N-SH2 domain T42A in the same assay as above. Details: peptide library: pTyr-Var.
With VTSLKYSTPPY [BRIP1_Y916_S919P] the enrichment score was inactive: 0.667.
With VTSLKYSTPPF [BRIP1_Y916_S919P_YF] the enrichment score was inactive: 0.814.
In the case of QLFGPYLRIHA [BSCL2_Y213_A212P_YF], the enrichment score is reported as inactive: 2.94.
In the case of MASTSYDYCRV [BST2_Y6], the enrichment score is reported as inactive: 0.6.
For MASISYDYCRV [BST2_Y6_T4I], the enrichment score was inactive: 0.672.
In the case of MASTSYDFCRV [BST2_Y6_YF], the enrichment score is reported as inactive: 0.739.
For SISYDYCRVPM [BST2_Y8_T4I], the enrichment score was inactive: 0.519.
For VTAALYGCLYE [BTD_Y536_R538C], the enrichment score was inactive: 1.32.
For VMAALYGRLYE [BTD_Y536_T532M], the enrichment score was inactive: 2.9.
With VTAALYGRLFE [BTD_Y536_YF] the enrichment score was inactive: 1.5.
In the case of PELINYHQHYS [BTK_Y361_N365Y], the enrichment score is reported as inactive: 1.11.
In the case of PELINYHQHFS [BTK_Y361_N365Y_YF], the enrichment score is reported as inactive: 1.04.
In the case of ISRLKYPVSQQ [BTK_Y375], the enrichment score is reported as inactive: 1.08.
With MSRLKYPVSQQ [BTK_Y375_I370M] the enrichment score was inactive: 0.867.
In the case of ISGLKYPVSQQ [BTK_Y375_R372G], the enrichment score is reported as inactive: 0.756.
For HKLSYCEYDFE [BTK_Y40_Y40C], the enrichment score was inactive: 0.905.
HKLSFYEFDFE [BTK_Y40_YF] was tested, and the enrichment score was inactive: 1.44.
For KWRGQYDVAIK [BTK_Y425], the enrichment score was inactive: 1.24.

These binders were tested against SHP2 N-SH2 domain T52S in the same assay as above. Details: peptide library: pTyr-Var.
For VTSLKYSTPPY [BRIP1_Y916_S919P], the enrichment score was inactive: 0.767.
In the case of VTSLKYSTPPF [BRIP1_Y916_S919P_YF], the enrichment score is reported as inactive: 0.931.
With QLFGPYLRIHA [BSCL2_Y213_A212P_YF] the enrichment score was active: 3.49.
With MASTSYDYCRV [BST2_Y6] the enrichment score was inactive: 0.443.
For MASISYDYCRV [BST2_Y6_T4I], the enrichment score was inactive: 0.772.
For MASTSYDFCRV [BST2_Y6_YF], the enrichment score was inactive: 0.983.
For SISYDYCRVPM [BST2_Y8_T4I], the enrichment score was inactive: 0.78.
VTAALYGCLYE [BTD_Y536_R538C] was tested, and the enrichment score was inactive: 1.23.
For VMAALYGRLYE [BTD_Y536_T532M], the enrichment score was active: 3.86.
VTAALYGRLFE [BTD_Y536_YF] was tested, and the enrichment score was inactive: 1.44.
With PELINYHQHYS [BTK_Y361_N365Y] the enrichment score was inactive: 1.54.
With PELINYHQHFS [BTK_Y361_N365Y_YF] the enrichment score was inactive: 1.07.
With ISRLKYPVSQQ [BTK_Y375] the enrichment score was inactive: 1.26.
MSRLKYPVSQQ [BTK_Y375_I370M] was tested, and the enrichment score was inactive: 0.977.
In the case of ISGLKYPVSQQ [BTK_Y375_R372G], the enrichment score is reported as inactive: 0.785.
For HKLSYCEYDFE [BTK_Y40_Y40C], the enrichment score was inactive: 0.787.
HKLSFYEFDFE [BTK_Y40_YF] was tested, and the enrichment score was inactive: 1.12.
In the case of KWRGQYDVAIK [BTK_Y425], the enrichment score is reported as inactive: 1.3.

These binders were tested against SHP2 N-SH2 domain wild-type in the same assay as above. Details: peptide library: pTyr-Var.
With VTSLKYSTPPY [BRIP1_Y916_S919P] the enrichment score was inactive: 1.11.
With VTSLKYSTPPF [BRIP1_Y916_S919P_YF] the enrichment score was inactive: 0.779.
With QLFGPYLRIHA [BSCL2_Y213_A212P_YF] the enrichment score was inactive: 1.94.
For MASTSYDYCRV [BST2_Y6], the enrichment score was inactive: 0.574.
With MASISYDYCRV [BST2_Y6_T4I] the enrichment score was inactive: 0.943.
In the case of MASTSYDFCRV [BST2_Y6_YF], the enrichment score is reported as inactive: 1.01.
SISYDYCRVPM [BST2_Y8_T4I] was tested, and the enrichment score was inactive: 0.794.
VTAALYGCLYE [BTD_Y536_R538C] was tested, and the enrichment score was inactive: 1.77.
VMAALYGRLYE [BTD_Y536_T532M] was tested, and the enrichment score was inactive: 3.03.
With VTAALYGRLFE [BTD_Y536_YF] the enrichment score was inactive: 1.23.
With PELINYHQHYS [BTK_Y361_N365Y] the enrichment score was inactive: 1.35.
With PELINYHQHFS [BTK_Y361_N365Y_YF] the enrichment score was inactive: 1.39.
With ISRLKYPVSQQ [BTK_Y375] the enrichment score was inactive: 1.8.
In the case of MSRLKYPVSQQ [BTK_Y375_I370M], the enrichment score is reported as inactive: 1.12.
In the case of ISGLKYPVSQQ [BTK_Y375_R372G], the enrichment score is reported as inactive: 0.842.
In the case of HKLSYCEYDFE [BTK_Y40_Y40C], the enrichment score is reported as inactive: 0.772.
For HKLSFYEFDFE [BTK_Y40_YF], the enrichment score was inactive: 1.15.
In the case of KWRGQYDVAIK [BTK_Y425], the enrichment score is reported as inactive: 1.26.
